From PubChem BioAssay (NCATS)
Several values for one entry are separate records, joined by “and”; a condition that tells them apart may be missing. Identical values can stand only once. This list was built around the results that the source calls inconclusive (neither active nor inactive); the mix of calls is not that of the screen. For some assays here: Where the call is inconclusive, the potency comes from a doubtful curve fit. Where a structure was tested more than once in an assay, its records may differ in their call. Activity calls are given as the source filed them. Calls follow the shape of the dose curve; as a rule, active = well fitted curve in the direction sought with a large enough effect; inconclusive = small, poorly fitted or top-dose-only effect, or another doubt; inactive = no such curve, though single readings can be large; an effect the other way counts as inactive or inconclusive.

Assays:
[1] = test system: HEK293; test: Cytotoxic Profiling of Annotated Libraries Using Quantitative High-Throughput Screening (AID 1296008); details: Five cell lines viability, CellTiter-Glo ATP luminescence, 48-72 h; max response: stronger effect = lower value; also: nearly all actives have a fitted effect of over 60% in size
How it was run: (§1)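 Cytotoxicity was measured as CellTiter-Glo ATP luminescence, read after 10 min at room temperature. Compound treatment of the cells lasted 48 or 72 hr at 37 degrees Celsius in a qHTS format.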

[2] = test system: KB-3-1; test: as above; details: Five cell lines viability, CellTiter-Glo ATP luminescence, 48-72 h; max response: stronger effect = lower value
How it was run: as §1

[3] = test system: UISO; test: qHTS assay to identify novel small-molecules to repurpose for Merkel cell carcinoma treatment (AID 1296009); details: MCC and control cell lines, CellTiter-Glo viability, 72 h; series mostly up to 46 µM; also: nearly all actives have a fitted effect of over 60% in size
How it was run: (§2)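 After compound transfer in DMSO, plates were kept 72 hr at 37 degree celsius. Luminescent ATP signal from CellTiter-Glo served as viability measure, normalized against DMSO and no-cell controls.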

[4] = test system: WaGa; test: as above; details: MCC and control cell lines, CellTiter-Glo viability, 72 h; series mostly up to 46 µM
How it was run: as §2

[5] = test system: SKOV3; test: Primary qHTS to identify gynecologic anti-cancer compounds using libraries of approved drugs and bioactive compounds (AID 1345084); details: Gynecologic cancer cell panel viability, ATPlite luminescence, 48 h; series mostly up to 57.5 µM; also: nearly all actives have a fitted effect of over 55% in size
How it was run: (§3)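 In this quantitative HTS, cell killing is estimated from loss of ATP-dependent luciferase light. Cells see five compound concentrations over a 48 h exposure.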

[6] = test system: NIH3T3; test: Cytotoxic Profiling of Annotated Libraries Using Quantitative High-Throughput Screening (AID 1296008); details: Five cell lines viability, CellTiter-Glo ATP luminescence, 48-72 h; max response: stronger effect = lower value; also: nearly all actives have a fitted effect of over 60% in size
How it was run: as §1

[7] = test system: JEG-3; test: Primary qHTS to identify gynecologic anti-cancer compounds using libraries of approved drugs and bioactive compounds (AID 1345084); details: Gynecologic cancer cell panel viability, ATPlite luminescence, 48 h; series mostly up to 57.5 µM; also: nearly all actives have a fitted effect of over 55% in size
How it was run: as §3

[8] = test system: MKL-2; test: qHTS assay to identify novel small-molecules to repurpose for Merkel cell carcinoma treatment (AID 1296009); details: MCC and control cell lines, CellTiter-Glo viability, 72 h; activity change, negative = cytotoxicity: at 46 µM (top of the series); also: nearly all actives have a fitted effect of over 60% in size
How it was run: as §2

[9] = test system: HeLa; test: Primary qHTS to identify gynecologic anti-cancer compounds using libraries of approved drugs and bioactive compounds (AID 1345084); details: Gynecologic cancer cell panel viability, ATPlite luminescence, 48 h; series mostly up to 57.5 µM; also: nearly all actives have a fitted effect of over 55% in size
How it was run: as §3

[10] = test system: Hek293T; test: as above; details: Gynecologic cancer cell panel viability, ATPlite luminescence, 48 h, control line for the selectivity index; series mostly up to 57.5 µM
How it was run: as §3

[11] = test system: PA-1; test: as above; details: Gynecologic cancer cell panel viability, ATPlite luminescence, 48 h; series mostly up to 57.5 µM
How it was run: as §3

[12] = test system: MKL-1; test: qHTS assay to identify novel small-molecules to repurpose for Merkel cell carcinoma treatment (AID 1296009); details: MCC and control cell lines, CellTiter-Glo viability, 72 h; series mostly up to 46 µM; also: nearly all actives have a fitted effect of over 60% in size
How it was run: as §2

[13] = test system: CAOV3; test: Primary qHTS to identify gynecologic anti-cancer compounds using libraries of approved drugs and bioactive compounds (AID 1345084); details: Gynecologic cancer cell panel viability, ATPlite luminescence, 48 h; series mostly up to 57.5 µM; also: nearly all actives have a fitted effect of over 55% in size
How it was run: as §3

[14] = test system: MCC-26; test: qHTS assay to identify novel small-molecules to repurpose for Merkel cell carcinoma treatment (AID 1296009); details: MCC and control cell lines, CellTiter-Glo viability, 72 h; activity change, negative = cytotoxicity: at 46 µM (top of the series); also: nearly all actives have a fitted effect of over 60% in size
How it was run: as §2

[15] = test system: MCC-13; test: as above; details: MCC and control cell lines, CellTiter-Glo viability, 72 h; series mostly up to 46 µM
How it was run: as §2

[16] = test system: Es-2; test: Primary qHTS to identify gynecologic anti-cancer compounds using libraries of approved drugs and bioactive compounds (AID 1345084); details: Gynecologic cancer cell panel viability, ATPlite luminescence, 48 h; series mostly up to 57.5 µM; also: nearly all actives have a fitted effect of over 55% in size
How it was run: as §3

[17] = test system: CASKI; test: as above; details: Gynecologic cancer cell panel viability, ATPlite luminescence, 48 h; series mostly up to 57.5 µM
How it was run: as §3

[18] = test system: OV90; test: as above; details: Gynecologic cancer cell panel viability, ATPlite luminescence, 48 h; series mostly up to 57.5 µM
How it was run: as §3
% is scaled to controls: 0 for no effect and ±100 for the full control effect; potency is read from the fitted curve at half-maximal effect; tags tell the direction and shape of the fitted curve.

CNC(=O)c1ccc(C)c(-n2c(C)cc(OCc3ccc(F)cc3F)c(Br)c2=O)c1
inactive: Potency [5]
inconclusive: Potency [1] 37.2 µM [inhibitor, single point] | Potency [2] 20.6 µM [inhibitor, single point] | Potency [3] 33.2 µM [inhibitor, single point] | Potency [4] 13.2 µM [inhibitor, partial curve, poor fit]

Oc1ccc(O)cc1
inconclusive: Potency [3] 21.1 µM [inhibitor, partial curve]
inactive: max response [1] -16.2% | max response [6] -10.8% | Potency [7]

O=c1c(O)c(-c2ccc(O)c(O)c2)oc2cc(O)ccc12
inactive: Potency [8]
inconclusive: Potency [1] 20.9 µM [inhibitor, partial curve] | Potency [2] 33.2 µM [inhibitor, single point] | Potency [6] 29.6 µM [inhibitor, single point] | Potency [3] 16.6 µM [inhibitor, partial curve] | Potency [4] 23.5 µM [inhibitor, partial curve, poor fit]

CC=CC[C@@H](C)C(=O)[C@H]1C(=O)N[C@@H](C(C)C)C(=O)N(C)CC(=O)N(C)[C@@H](CC(C)C)C(=O)N[C@@H](C(C)C)C(=O)N(C)[C@@H](CC(C)C)C(=O)N[C@@H](C)C(=O)N[C@H](C)C(=O)N(C)[C@@H](CC(C)C)C(=O)N(C)[C@@H](CC(C)C)C(=O)N(C)[C@@H](C(C)C)C(=O)N1C
inactive: Potency [8]
inconclusive: Potency [1] 33.2 µM [inhibitor, single point] | Potency [6] 23.5 µM [inhibitor, single point]

Nc1nc2ccc(OC(F)(F)F)cc2s1
inconclusive: Potency [1] 26.4 µM [inhibitor, single point] and 23.7 µM [inhibitor, single point] | Potency [6] 33.5 µM [inhibitor, single point] | Potency [9] 28.2 µM [cytotoxic, single point] | Potency [10] 39.8 µM [cytotoxic, single point] | Potency [11] 39.8 µM [cytotoxic, single point]

O=C(Nc1ccccc1-c1cn2c(CN3CCNCC3)csc2n1)c1cnc2ccccc2n1
inconclusive: Potency [1] 29.1 µM [inhibitor, single point] | Potency [2] 37.2 µM [inhibitor, single point] and 23.1 µM [inhibitor, single point] | Potency [6] 18.4 µM [inhibitor, single point] | Potency [12] 29.6 µM [inhibitor, single point] | Potency [3] 1.32 µM [inhibitor, full curve] | Potency [13] 39.8 µM [cytotoxic, single point]

O=C1c2ccccc2-[n+]2ccc3c([nH]c4ccccc43)c21
active: Potency [1] 2.64 µM | Potency [2] 2.96 µM | Potency [14] 7.43 µM | Potency [3] 0.662 µM

CCOC(=O)N1CCN([N+]([O-])=NOc2ccc([N+](=O)[O-])cc2[N+](=O)[O-])CC1
active: Potency [1] 3.72 µM | Potency [6] 9.35 µM | Potency [12] 10.5 µM
inconclusive: Potency [15] 6.62 µM [inhibitor, full curve] | Potency [14] 37.2 µM [inhibitor, single point] | Potency [3] 14.8 µM [inhibitor, partial curve]

CC(=O)Oc1ccccc1C(=O)Nc1ncc([N+](=O)[O-])s1
inactive and 16.8 µM (active): Potency [4]
inconclusive: Potency [1] 29.9 µM [inhibitor, single point] | Potency [6] 23.7 µM [inhibitor, single point] | Potency [8] 42.9 µM [inhibitor, partial curve, poor fit] and 33.5 µM [inhibitor, single point] | Potency [3] 24.1 µM [inhibitor, partial curve] | Potency [16] 14.1 µM [cytotoxic, partial curve] | Potency [9] 31.6 µM [cytotoxic, single point] | Potency [10] 25.1 µM [cytotoxic, single point] | Potency [11] 39.8 µM [cytotoxic, single point] | Potency [5] 0.141 µM [rising, full curve, poor fit]

c1ccc2c(Cc3c[nH]c4ccccc34)c[nH]c2c1
inconclusive: Potency [1] 23.5 µM [inhibitor, single point] | Potency [6] 33.2 µM [inhibitor, single point] | Potency [8] 20.9 µM [inhibitor, partial curve, poor fit]

O=c1cc(-c2ccc(O)cc2)oc2cc(O)cc(O)c12
inactive: max response [2] 3.99% | Potency [15]
active: Potency [4] 2.09 µM
inconclusive: Potency [1] 37.2 µM [inhibitor, single point] | Potency [3] 29.6 µM [inhibitor, single point]

CC(C)(C)OC(=O)CN(Cc1ccc(Cl)cc1)Cc1ccc([N+](=O)[O-])s1
inconclusive: Potency [1] 23.5 µM [inhibitor, partial curve] | Potency [8] 13.2 µM [inhibitor, partial curve]
inactive: max response [6] 1.62% | Potency [4]

COc1cccc2c1CCCC2CCCN1CCN(C2CCCCC2)CC1 (stereo not drawn)
inactive: Potency [12]
active: Potency [1] 14.8 µM
inconclusive: Potency [2] 37.2 µM [inhibitor, single point] | Potency [6] 33.2 µM [inhibitor, single point] | Potency [8] 23.5 µM [inhibitor, partial curve, poor fit] | Potency [3] 26.4 µM [inhibitor, single point] | Potency [4] 16.6 µM [inhibitor, partial curve]

CNCc1ccc(-c2[nH]c3cc(F)cc4c3c2CCNC4=O)cc1
inconclusive: Potency [1] 20.9 µM [inhibitor, partial curve] | Potency [2] 20.6 µM [inhibitor, single point] | Potency [8] 0.372 µM [inhibitor, full curve, poor fit] | Potency [3] 18.7 µM [inhibitor, single point] | Potency [13] 0.891 µM [cytotoxic, partial curve, poor fit]

COc1ccc(-c2cc(=S)ss2)cc1
inconclusive: Potency [1] 33.5 µM [inhibitor, single point] | Potency [8] 10.6 µM [inhibitor, partial curve] | Potency [3] 13.3 µM [inhibitor, partial curve] | Potency [4] 26.6 µM [inhibitor, single point]
inactive: outcome [6] | Potency [17] | Potency [5]
active: Potency [12] 26.6 µM

CCCCCNC(=O)N1CCC(CN(Cc2ccc(Cl)cc2)Cc2ccc([N+](=O)[O-])s2)C1 (stereo not drawn)
inconclusive: Potency [1] 18.7 µM [inhibitor, partial curve] | Potency [2] 23.5 µM [inhibitor, partial curve, poor fit] | Potency [8] 20.9 µM [inhibitor, single point]

O=C(C=Cc1ccc(O)cc1)c1ccc(O)cc1O
inconclusive: Potency [1] 16.6 µM [inhibitor, partial curve] | Potency [2] 29.6 µM [inhibitor, single point] | Potency [8] 1.48 µM [inhibitor, full curve, poor fit] | Potency [3] 10.5 µM [inhibitor, full curve]

Oc1ccc(C=Cc2cc(O)cc(O)c2)cc1
inconclusive: Potency [1] 37.2 µM [inhibitor, single point] | Potency [6] 33.2 µM [inhibitor, single point] | Potency [8] 16.6 µM [inhibitor, partial curve, poor fit] | Potency [3] 26.4 µM [inhibitor, single point] | Potency [4] 8.33 µM [inhibitor, partial curve]

C#C[C@]1(O)CC[C@H]2[C@@H]3CCc4cc(O)ccc4[C@H]3CC[C@@]21C
inconclusive: Potency [1] 9.44 µM [inhibitor, partial curve, poor fit] | Potency [2] 29.1 µM [inhibitor, single point] | Potency [15] 23.7 µM [inhibitor, partial curve] | activity change, negative = cytotoxicity [8] -32.3% [inhibitor] | Potency [3] 10.6 µM [inhibitor, partial curve] | Potency [4] 33.5 µM [inhibitor, single point] | Potency [9] 31.6 µM [cytotoxic, partial curve, poor fit] | Potency [7] 39.8 µM [cytotoxic, single point] | Potency [18] 17.8 µM [cytotoxic, partial curve, poor fit] | Potency [11] 39.8 µM [cytotoxic, single point]
inactive: Potency [13]

CCC(=C(CC)c1ccc(O)cc1)c1ccc(O)cc1
inactive: max response [6] -12.1%
inconclusive: Potency [1] 37.2 µM [inhibitor, single point] | Potency [2] 33.2 µM [inhibitor, single point] | Potency [8] 14.8 µM [inhibitor, single point] | Potency [3] 26.4 µM [inhibitor, single point] | Potency [4] 23.5 µM [inhibitor, partial curve, poor fit]

CS(=O)(=O)N(Cc1ccco1)CC(O)Cn1c2ccccc2c2ccccc21 (stereo not drawn)
inconclusive: Potency [1] 18.7 µM [inhibitor, partial curve] and 29.1 µM [inhibitor, single point] | Potency [3] 14.8 µM [inhibitor, partial curve]
inactive: max response [6] -17.4% and 0.438%
